Sequences with one replicate were seen in a single cluster, so their values are uncertain.
Tested on: ATP
Assay: switch fluorescence ratio, 500 uM ATP over buffer (Cy3 cluster intensity, sum of 5 cycles each) (fold (ratio)); higher = stronger signal-on switching upon ATP binding; sequences stand for … in TCGTCGGCAGCGTCAGATGTGTATAAGAGACAGTTTTTTTTTTTTTTTTTTTTTTTTT…TC
Conditions: aptamer strand: ATP DNA aptamer (quencher-CACCTGGGGGAGTATTGCGGAGGAAGG + anchor), 100 nM annealed; ATP concentration: 500 uM; one replicate
Outline: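 Cy3-labelled switching-strand clusters on a modified Illumina MiSeq flow-cell were annealed to 100 nM quencher-labelled ATP aptamer, imaged in selection buffer, then imaged after 15 min with 500 uM ATP at 22 °C. Five buffer/ATP cycles ran, with NaOH stripping and re-annealing between them. The fluorescence ratio is summed target-cycle over summed buffer-cycle Cy3 intensity per cluster, averaged per switch-domain sequence. Clusters outside 100-1000 RFU were excluded.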
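Also: ATP exposure 15 min at 22 °C before imaging.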

Sequence | switch fluorescence ratio
CTACAACAGA | 1.1
AGATTCATCT | 1.01
TAATTGCCTA | 0.99
TCACAAAGAC | 1.08
CGAGAGGTCT | 0.954
TACTGGGAGT | 1.03
CAGATCAGAT | 0.964
GCCGTATTTT | 0.997
TGCGGGCAGG | 1.01
ATGAGCCTC | 0.984
ATGCCCATAT | 1.03
ACGTATAGTG | 1.05
GATACGAGAT | 1.04
ATTGGAAGGG | 1.01
ACAGGTTATC | 1.02
TCTGGGTGTC | 1.05
CAGATGTGCT | 0.996
CATAGGATAG | 1.05
TGTAAACGAT | 1.19
TTAGATCAAC | 0.922
CTATTCCCGG | 1.04
TCCTACACTT | 1
GAACCTATAT | 1.05
CAGTTATTTC | 0.994
TTGCGTAGG | 1.06
TTATAACTAG | 0.986

Sequence | switch fluorescence ratio
TTGCAATGCG | 2.16
TCACATTATG | 1.02
TTGCGCGAAG | 1.02
TGCATGAGTG | 1.02
GCTTGGAGAC | 0.971
GGTACGGAAG | 1.05
GTGCTTATGG | 0.973
TCTGGAGAAT | 1.02
GGTGCATTCT | 1
CGGGGCTTG | 1.02
CTAAAAGCCA | 1.02
TGCAGATCCA | 1
GAGTATCGAT | 0.995
AACATTTCGG | 1.03
GAACATAAGT | 1.08
ACTGCAGGCA | 1.03
CTGGTGCTTC | 1.04
ATATTATAGT | 1.04
TTGATGCGAC | 1.11
CGCCGAGGCC | 1.04
TGTCCAGCGG | 1.03
TGTTACTCTT | 0.956
TTCACAGGTT | 1.11
TCGTTCAATA | 1.2
TGAGACCAAA | 0.952
CGTTCAGCTG | 0.959

Sequence | switch fluorescence ratio
TCGTGCCGTA | 0.966
CGTATTTCGA | 1.01
CAGAGGGAA | 1.02
CGGAAGGTAT | 0.974
GGATTGACGC | 0.967
CAGGCGTACA | 1.05
CTGCACGAGA | 1.02
GATAGGCAGA | 1.02
AAGTAATAGA | 0.996
TTCTTGCAAA | 1.06
AAGAGATGGT | 0.961
GCAATCTACT | 1.84
GAGGTCTGGA | 0.982
TGGCCTTTCC | 1.69
CATATGGTTC | 1.07
CAGCGTTGA | 0.988
TGATTGCTGT | 1.01
ACCGTGTGAA | 1.03
TATAGAGCTT | 1.07
TATAACAGCG | 1.02
TACTCGGAGT | 1.04
ATGCAGCGGA | 1.05
CTTAAATACC | 1.07
CTGCTGGGGG | 1.03
ATCAGCAAAT | 1.35
CCTTGTTCTT | 0.989

Sequence | switch fluorescence ratio
TTAAGCTTTC | 1.42
ACGTTAAGGT | 1.07
ATGCACAGCT | 1.01
TCGGTTAGAC | 1.07
ATTGACTTGA | 0.985
TTACCTGGTT | 1.05
AGGGGGGGTC | 0.981
GGAGTCGAGT | 1.03
TTGATTCGGA | 0.963
ACATATTAAA | 0.954
TAACAAGCCC | 0.922
ACTTGTGAGG | 0.958
CCCCTAACAC | 1.14
GATTTTGTG | 0.933
AAATAAGACC | 1.01
AGCTAGCCAG | 0.971
GATGGCCAAT | 1.02
ATATTGAACG | 1.04
GACTCAACGG | 0.987
TAGGGATCCG | 1.02
ATATGCCTTG | 0.983
AGATGCGAGC | 1
CACCGTGTCA | 1.03
CGGTAGGGTG | 0.952
TGTTGCACAT | 0.987
CTTTGAGGTT | 1.35

Sequence | switch fluorescence ratio
AATGGAAAGC | 1
ATCGTGAAGT | 1.03
CTAGATGATT | 1.01
ACCTGCGGTC | 1.06
GTGGTTGAGA | 0.978
TTAGCTACGG | 1.08
GGTATCGCCC | 0.945
CCCGCGGGAT | 1.01
TGGCGATCAG | 1.03
TTCACAACTG | 1.02
ATCTGTGATT | 0.989
TTCTGAAACT | 1.05
TTTCGATGAT | 1.1
GCATTCCGCT | 1.17
GGGTGAATGC | 1.02
GCAGAAGGAG | 0.993
CTACATTTGA | 0.969
ATAAAAGCAG | 1.02
GCTCTGGACG | 1.02
ACGCCCAATT | 1.04
TACCAGCGTT | 1.02
TCGGCAGTCC | 1.17
AGATGCGACT | 1.01
CGGAGAACGA | 0.984
GGACGATCCA | 0.962
GCCATTGGGC | 1.03

Sequence | switch fluorescence ratio
TTCCAGAGGC | 0.984
GATTCTGACG | 1.05
TATAGTTTTA | 0.982
CTAGTATTAC | 1.22
ATTATTAAGA | 0.978
CAGTAGCGCT | 0.995
AGTGTCCGGA | 1.05
TGGAACCGGC | 1.17
TTAGAAGTC | 0.981
ATGACAGGAA | 0.992
GGGGTGCAAG | 0.935
ATTATACGC | 1
GGAGAAAGGT | 1.02
CTGACCGACG | 1.69
TTGACATAAA | 0.952
GCAAGTGAGA | 1.03
GGATAAAGGA | 0.967
TCGCACACCT | 1.43
GGCGCCATGC | 1.09
ACAGGTCTTT | 1.02
TCCCGAATTG | 1.02
ATCAATACCC | 1.25
AATATGAAAA | 0.973
